PubChem BioAssay AID624417 (National Center for Advancing Translational Sciences (NCATS), 2012)
The whole screen tested about 410,000 compounds, of which about 6,400 (1.6%) were called active. Inconclusive means that the source gave no clear call. Such entries were picked first, then a sample of the others. The call rests on the fitted dose curve; in most records, active means well fitted inhibition curve with a large enough effect; inconclusive means small, poorly fitted or top-dose-only effect; inactive means no such curve, though single readings can be large or run the other way. No potency is given beside an inconclusive call; the fits are too rough.

Biological target: Glucagon-like peptide 1 receptor (Homo sapiens) (UniProt P43220)
Assay: qHTS of GLP-1 Receptor Inverse Agonists (Inhibition Mode); further: nearly all actives have a fitted effect of over 55% in size
Conditions: HEK293 GLP-1R CRE-luciferase, luminescence, 24 h, GLP-1R form is constitutively active; series mostly up to 38.3 µM
Procedure, shortened: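 Cells are plated, allowed 12 hours at 37 deg C, then treated with compounds for 24 hr before luciferase detection reagent is added and luminescence is read after 12 min at room temperature. The HEK293 line carries constitutively active GLP-1R with a cAMP-responsive reporter.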
Potency means the concentration at half of the fitted maximal effect; tags describe the fitted curve by direction and shape.

Chain of UniProt P43220 (P43220 whole entry, looked up): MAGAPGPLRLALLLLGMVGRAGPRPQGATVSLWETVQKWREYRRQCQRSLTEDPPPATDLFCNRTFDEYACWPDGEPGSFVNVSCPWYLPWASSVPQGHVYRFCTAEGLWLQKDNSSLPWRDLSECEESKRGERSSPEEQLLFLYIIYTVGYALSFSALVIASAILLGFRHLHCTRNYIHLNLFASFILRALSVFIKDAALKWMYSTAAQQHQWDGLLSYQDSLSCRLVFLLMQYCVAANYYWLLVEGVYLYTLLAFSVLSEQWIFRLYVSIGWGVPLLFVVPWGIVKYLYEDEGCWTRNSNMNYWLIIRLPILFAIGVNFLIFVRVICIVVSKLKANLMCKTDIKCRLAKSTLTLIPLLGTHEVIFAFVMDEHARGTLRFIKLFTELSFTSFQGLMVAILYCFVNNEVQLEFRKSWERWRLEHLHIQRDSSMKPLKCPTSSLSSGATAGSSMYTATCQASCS

| SMILES | Potency |
| --- | --- |
| CCOC(=O)[C@]12CCCC=C1N(Cc1ccco1)C(=O)[C@H](CC(=O)N1CCCCC1)C2 | inactive |
| O=c1c2ccccc2ncn1-c1ccc(Cl)cc1Cl | inconclusive [inhibitor, partial curve] |
| O=C(Nc1cc(-c2ccccc2)nn1-c1ccccc1)c1ccccc1F | inconclusive [inhibitor, single point] |
| Cc1cc(C)cc(NS(=O)(=O)c2cc(Br)cnc2N)c1 | inconclusive [inhibitor, partial curve, poor fit] |
| CNC(=O)CSc1nc(-c2ccccc2)c(-c2ccccc2)o1 | inconclusive [inhibitor, single point] |
| Cc1oc2c(c1C(=O)Nc1ccc(Cl)cc1F)C1=NCCN1C=N2 | inactive |
| O=C1NC(c2ccccc2)=C(c2ccc3ccccc3n2)C(c2ccc(F)cc2)N1 (stereo unspecified) | inconclusive [inhibitor, single point] |
| Cc1ccc(NS(=O)(=O)c2cc(C(=O)N(C)C3CCN(C)CC3)ccc2Cl)cc1Cl | inconclusive [inhibitor, single point] |
| Cc1ccc(C(=O)Nc2cccc(NC(=O)CN3CCCCC3)c2)cc1 | inconclusive [inhibitor, single point] |
| S=C(Nc1ccc(Cl)cc1)c1nc2ccccc2[nH]1 | inconclusive [inhibitor, single point] |
| O=C1NNC(=O)C1c1ccccc1 | inactive |
| Cc1[nH]c2ccccc2c1Cc1nnc(SCCC#N)o1 | inconclusive [inhibitor, partial curve, poor fit] |
| COc1ccc(Nc2nnc(-c3ccc(C)c(S(=O)(=O)N4CCN(C)CC4)c3)c3ccccc23)cc1 | inconclusive [inhibitor, single point] |
| CCCCCC(=O)NC(=S)Nc1ccc(N2CCCCC2)c(Cl)c1 | inconclusive [inhibitor, full curve, poor fit] |
| Cc1ccc(N=Cc2c(O)n(-c3cc(Cl)ccc3N3CCOCC3)c(=O)c3ccccc23)cc1C | inconclusive [inhibitor, partial curve, poor fit] |
| CC(C)c1ccc(C2(C)NC(=O)N(CC(=O)NCC3COc4ccccc4O3)C2=O)cc1 (stereo unspecified) | inconclusive [inhibitor, partial curve, poor fit] |
| O=C1N(Cc2cccc(Cl)c2)C[C@@H]2C[C@@H](c3cccn3-c3nccs3)N3CCC[C@@]123 | inconclusive [inhibitor, partial curve, poor fit] |
| O=C(O)c1cc2c(s1)-c1ccccc1OC2 | inconclusive [inhibitor, partial curve, poor fit] |
| Cc1ccc(C2CC(=O)Nc3c2ccc2ccccc32)cc1[N+](=O)[O-] (stereo unspecified) | inconclusive [inhibitor, partial curve, poor fit] |
| COc1ccc2sc(NC(=O)c3ccco3)nc2c1 | inconclusive [inhibitor, single point] |
| Cc1ccc(C)c(N2CCN(C(=O)c3ccc4c(c3)c(C)c(C)n4C)CC2)c1 | inconclusive [inhibitor, partial curve, poor fit] |
| O=[N+]([O-])c1ccc(N/N=C/c2c[nH]c3ccccc23)cc1 | inconclusive [inhibitor, full curve, poor fit] |

| SMILES | Potency |
| --- | --- |
| COc1ccc(C(=O)N2CCC(c3ccncc3)CC2)cc1OC | inactive |
| Cc1c(C(=O)N2CCCC(C)C2)sc2ncnc(N3CCCCC3C)c12 (stereo unspecified) | inconclusive [inhibitor, single point] |
| CCc1ccc(NC(=O)Cn2ccn(-c3cccc(Cl)c3)c(=O)c2=O)cc1 | inconclusive [inhibitor, single point] |
| CCc1ccccc1NC(=O)Nc1cc(F)ccc1F | inconclusive [inhibitor, single point] |
| O=C(CN1C2=NCCCN2c2ccccc21)c1cccs1 | inconclusive [inhibitor, single point] |
| Cc1ccc(CN2CCc3nc(N4CCN(C)CC4)ncc3C2)cc1 | active: 7.94 µM |
| COC(=O)C1=C(C)NC(C)=C(C(=O)O[C@@H]2CCCN(Cc3ccccc3)C2)[C@@H]1c1cccc([N+](=O)[O-])c1 | inconclusive [inhibitor, single point] |
| CCn1c(=O)cc(N2CCN(C(=O)c3ccco3)CC2)[nH]c1=O | inactive |
| COc1ccc(CNC(=O)CCCNC(=O)c2ccc(Cl)cc2)cc1OC | inactive |
| O=C(c1ccccc1)N1CCN(Cc2cccc(Oc3ccccc3)c2)CC1 | inconclusive [inhibitor, single point] |
| COc1ccc(C(C#N)=C2C=CC(=NO)C=C2)cc1 | inconclusive [inhibitor, single point] |
| COc1ccc(C(=O)/C=C/C(=O)N(CC(=O)NC2CCCCC2)Cc2ccccc2OC)c(O)c1 | inactive |
| CCOC(=O)[C@H]1[C@H]2COc3cc(OC)ccc3[C@@H]2N2C(=O)N(c3ccc(Br)cc3)C(=O)[C@@]12C | inconclusive [inhibitor, single point] |
| O=C(c1cc(C(=O)NCCc2ccccc2)c(=O)n(CCc2ccccc2)c1)c1cc(Cl)ccc1O | inconclusive [inhibitor, partial curve, poor fit] |
| CC1CCCN(CCOc2ccc3ccccc3c2Br)C1 (stereo unspecified) | active: 10 µM |
| COc1cc2c(C(=O)N3CCN(c4ccc(C)cc4)C(C)C3)cn(CC(C)C)c(=O)c2cc1OC (stereo unspecified) | inactive |
| O=C(Nc1ccccc1C(=O)Nc1ccccn1)c1cc(F)c(F)cc1Cl | inconclusive [inhibitor, single point] |
| O=C(CNc1cccc(S(=O)(=O)N2CCCC2)c1)Nc1cccc(F)c1 | inconclusive [inhibitor, partial curve] |
| Cc1cc(C(F)(F)F)nn1Cc1n[nH]c(=S)n1-c1ccc(F)cc1 | inactive |
| Cc1ccc(S(=O)C(c2ccccc2)c2ccccc2)cc1 (stereo unspecified) | inactive |
| CC1(C)SC2c3ccccc3C(=O)N2[C@@H]1C(=O)NCCCN1CCOCC1 (stereo partly specified) | inactive |
| Cn1c(=O)n(Cc2ccccc2)c(=O)c2c1nc1n2CCCN1CCc1ccccc1 | inconclusive [inhibitor, partial curve, poor fit] |

| SMILES | Potency |
| --- | --- |
| COc1ccc(NC(=O)CCCn2cnc3ccccc3c2=O)c(OC)c1 | inactive |
| C=C(C)C1(O)OC(=O)C=C1OC (stereo unspecified) | inactive |
| Cn1c(-c2ccc(-c3ccccc3)cc2)c[nH]c1=S | inconclusive [inhibitor, partial curve, poor fit] |
| CCCCCC(=O)c1c(C)[nH]c(C(=O)OCC)c1C | inconclusive [inhibitor, single point] |
| CCc1ccc(OC(C)c2nnc(SCC(=O)Nc3ncccc3C)n2C)cc1 (stereo unspecified) | inconclusive [inhibitor, partial curve, poor fit] |
| CCN(CC)S(=O)(=O)c1cc(NC(=O)Cn2ncc(Cl)c(Cl)c2=O)ccc1C | inconclusive [inhibitor, single point] |
| COCCNC(=O)NC(=O)CN1CCN(C(c2ccccc2)c2ccccc2)CC1 | inconclusive [inhibitor, partial curve, poor fit] |
| O=C(CCc1ccccc1)NNC(=O)Nc1cccc(Cl)c1 | inconclusive [inhibitor, single point] |
| COc1ccccc1CNC(=O)Cn1c(-c2cccs2)cc2cc(F)ccc21 | inactive |
| CC(C)(C)OC(=O)N(CCc1ccccc1)Cc1cccc(OCc2cccc(NC(=O)/C=C/c3ccccc3)c2)c1 | inconclusive [inhibitor, partial curve, poor fit] |
| CCN(CC)CCNC(=O)c1ccc(NC(=O)Cc2cccc3ccccc23)cc1 | inconclusive [inhibitor, partial curve] |
| Cc1ccccc1NCC(=O)N/N=C\C=C\c1cccc([N+](=O)[O-])c1 | inconclusive [inhibitor, single point] |
| CC(C)COc1cccc(-c2cc(C(=O)Nc3ccon3)c3ccccc3n2)c1 | inconclusive [inhibitor, partial curve, poor fit] |
| CCNC(=S)Nc1ccc(Cl)c(C(F)(F)F)c1 | inconclusive [inhibitor, single point] |
| Cc1ccc(NC(=O)c2cccc3cccnc23)cc1 | inconclusive [inhibitor, single point] |
| CSC1=C(C#N)C(c2ccccc2Cl)C(C(=O)c2cccs2)C(O)(C(F)(F)F)N1 (stereo unspecified) | inconclusive [inhibitor, single point] |
| CCc1cccc(C)c1Nc1c(-c2cccc(O)c2)nc2cnccn12 | inconclusive [inhibitor, single point] |
| O=S(=O)(NC1CC2CCC1C2)c1ccc(Br)cc1 (stereo unspecified) | inconclusive [inhibitor, single point] |
| Cc1ccc(-c2cc(=O)c3cc(F)ccc3[nH]2)cc1 | inactive |
| COc1ccc(C(CNC(=O)c2cccc(S(=O)(=O)N3CCc4ccccc43)c2)N(C)C)cc1 (stereo unspecified) | inconclusive [inhibitor, partial curve, poor fit] |
| Cc1cccc(C)c1N1C(=O)CC(N(O)c2ccccc2)C1=O (stereo unspecified) | inactive |
| O=C(NC1CCCCC1)C(C1CC1)n1c(=O)c(-c2ccccc2)nc2ccccc21 (stereo unspecified) | inconclusive [inhibitor, single point] |
